# The other results are listed elsewhere or left out.
# B1: chr4:173322470:173322571:+|3pUTR|ENSG00000109586|msi1|total|mutant (ssRNA)
# RNA: GGGAGUUCUACAGUCCGACGAUCUGCCGCAUUCACUCCCUUACCUACUGGCAUUCCCAGUGCCCUCUGUCCAUACCUACUUCCCGGAUUGCAAAGGAGUCUUCCAACCCGAGAAAAAUUGUCCACUGACAUUUGGGAUUUACUCAACAGAGGAUUGAGCAUCA
# B2: ENSG00000198589:be:win_7151|CDS|ENSG00000198589|bound_else_gene|NA|bound_elsewhere_windowed (ssRNA)
# RNA: GGGAGUUCUACAGUCCGACGAUCCUUGGGCCAAAACCUCAGAAGAAUUUGUUCACAUAAACAGAUUGGCCCUGGAGAGUGAAUUUGUUUCCUGCCAGCUUCACCAAUGGAUUGAUCUCAUUUUUGGCUAUAAACAGCAAGGACCAACAGAGGAUUGAGCAUCA
# B3: ENSG00000151612:stop:overlap|stop_codon|ENSG00000151612|stop_codon|NA|stop_codon (ssRNA)
# RNA: GGGAGUUCUACAGUCCGACGAUCCAGGCCUGUUGGAGAAGGAAGCCAGCAGUGAGGGGGAUUGCAAAGUAGAGAGAGGUUGGUAGAACUGUGGACUGUGAAGAGAUCGAGAAUAGCACAGUUAACUAGGCAUUUGCCUUCGGCCAACAGAGGAUUGAGCAUCA
# B4: chr8:88167829:88167930:-|CDS|ENSG00000156103|msi1|total|mutant (ssRNA)
# RNA: GGGAGUUCUACAGUCCGACGAUCCUUUGAUGUGUGGCAGAAUGUAACUCCUCUGACAUUUGAAGAAGUUCCCUACAGUGAAUCCGAAAAUGGCAAACGUGAUGUGGAUAUAACCAUUAUUUUUGCAUCUGGUUUCCAUGGGGACAACAGAGGAUUGAGCAUCA
# B5: chr10:60791946:60792061:+|CDS|ENSG00000170312|unk|total|mutant (ssRNA)
# RNA: GGGAGUUCUACAGUCCGACGAUCGUCAGCUCGUUACUCAACUCCAGUUGACAUUUGGAGUACCGGCACCAUAUUUGCUGAACCCGCAACUAAGAAACCACUUUUCCAUGGGGAUUCAGAAAUUGAUCAACUCUUCAGGAUUUUCAACAGAGGAUUGAGCAUCA
# B6: chr17:15229982:15230086:-|3pUTR|ENSG00000109099|msi1_unk|total|mutant (ssRNA)
# RNA: GGGAGUUCUACAGUCCGACGAUCUCAUAAAGCCUUCAUCACUCCCACAUUUUUCUUACGGUCGGAGCAUCAGAACAAGCGUCCCGACUCCUUGGGACCGUGAGUUCCCCGAGCUUGGCUGGGUCCCGGCUGUUCUGUGCCUCCCAACAGAGGAUUGAGCAUCA
# B7: chr20:3582170:3582271:+|CDS|ENSG00000088812|msi1|FALSE|bound_elsewhere (ssRNA)
# RNA: GGGAGUUCUACAGUCCGACGAUCGGCCUUCGGAAGAUCAAUGUGUCCUACUGGUGCUGGGAAGAUAUGUCCCCAUUUACAAAUAGUUUACUACAGUGGAUGCCGUCUGAGCCCAGUGAUGCUGGAUUCUGUGGAAUUUUAUCACAACAGAGGAUUGAGCAUCA
# B8: chr20:50583650:50583751:+|3pUTR|ENSG00000196396|msi1|total|mutant (ssRNA)
# RNA: GGGAGUUCUACAGUCCGACGAUCUUCCUAAGCCUGUUGCUGAAGUCAUUGUCGCUCAGCAACCGGGUGCAGUUUUCCAGGAACCGGCAUUUGCCUAAUUCCUGGCAUGACACUCCCGUGACUUCCUGGUGAGGCCCAGCCUGUCAACAGAGGAUUGAGCAUCA
# B9: chr10:74118286:74118577:+|3pUTR|ENSG00000035403|msi1|FALSE|unique (ssRNA)
# RNA: GGGAGUUCUACAGUCCGACGAUCGUAUUCUCAAACACAGUUACACUUGUGCACCCUCUAUCCCAAUAGGCAGACUGGGUUUCUAGCCCAUGGACUUCACAUAAGCUCAGAAUCCAAGUGAACACUAGCCAGACACUCUGCUCUCAACAGAGGAUUGAGCAUCA
# B10: chr9:86945015:86945116:-|3pUTR|ENSG00000180447|msi1|total|mutant (ssRNA)
# RNA: GGGAGUUCUACAGUCCGACGAUCUUGGUUUUGGAUAAGUUUGAGCCCUUGACCUUAAUUUCAUUGCUACCACUCUGAUCUCUCCGCACAUUUCUCCGGAUUAAGGGUCCAAAAAUGCUGAUCUAAGGGGUUGCCAUGGUGUUGCAACAGAGGAUUGAGCAUCA
# B11: chr1:32196422:32196614:+|3pUTR|ENSG00000084652|msi1|total|mutant (ssRNA)
# RNA: GGGAGUUCUACAGUCCGACGAUCACAGUUGUUUCUGUGUCCUGUUCUACCCCCACUCCAGUACAUAACUACUAUGUACUGUGCCGAGCCAUUCUAUAUGCUGAAUGUUCUGCUGUUGCAAACUUGCCAGGGUAUCCGCCAGUGCAACAGAGGAUUGAGCAUCA
# B12: chr10:92030471:92030572:+|3pUTR|ENSG00000095564|unk|FALSE|unique (ssRNA)
# RNA: GGGAGUUCUACAGUCCGACGAUCUAUUUUUUUAUUAACUAUUUAUUUGCUAGUUCCAUAAACCAGCUCUUUAACAUAGCUUAUAGUAAUUGAUAUUUUCUUAGAAUAAGUACAGAGCAAUAUAUCAUUAAAGGGCUAUGAAGGCAACAGAGGAUUGAGCAUCA
# B13: ENSG00000124766:be:win_3351|3pUTR|ENSG00000124766|bound_else_gene|NA|bound_elsewhere_windowed (ssRNA)
# RNA: GGGAGUUCUACAGUCCGACGAUCCCACCCUCCGGCCCCCGUCUUGUAAAAAGGGGAGGAGAAUUAGCCAAACACUGUAAGCUUUUAAGAAAAACAAAGUUUUAAACGAAAUACUGCUCUGUCCAGAGGCUUUAAAACUGGUGCCAACAGAGGAUUGAGCAUCA
# B14: chr12:65247554:65247656:+|3pUTR|ENSG00000174106|unk|FALSE|unique (ssRNA)
# RNA: GGGAGUUCUACAGUCCGACGAUCCAGUAUUUAAUUUGUUUCAGUAAACUUACUUUAUUACUGUUUAUGAUUUCAGAUAAAAAUAGUUGCUGAGUAAAUUUUACUUGUAAUCUACAAUUGGCUUUUUAAAAAUAACCUGUUGAUCAACAGAGGAUUGAGCAUCA
# B15: chr18:33333173:33333394:-|CDS|ENSG00000166960|control|control|control (ssRNA)
# RNA: GGGAGUUCUACAGUCCGACGAUCACAUUUUGAAAAACAAAAGACAGAGUUAGAAGAAGCAAAUGCAAAGAUUCAAGCAGACAUAGACUACAUGAAUGAACAUGGCCCUCUACUGGACUCUAAGCAGAAUCAGGAACUUCAAGACAACAGAGGAUUGAGCAUCA
# B16: chr10:43184366:43184487:+|3pUTR|ENSG00000169826|unk|FALSE|bound_elsewhere (ssRNA)
# RNA: GGGAGUUCUACAGUCCGACGAUCUAGUUUAUUUGAGCCAGCUCUAUCAGGGUCUUCCCAUGGUGGUUCAGAAUAGAUGAGCAUAGCAUGGUUUUGUUUGUUUUUGCUUUCAAUUUUCUAAUUUGGCAUGGAUCCAUAUGUAUUCAACAGAGGAUUGAGCAUCA
# B17: chrX:65741246:65741425:+|3pUTR|ENSG00000147065|msi1|FALSE|unique (ssRNA)
# RNA: GGGAGUUCUACAGUCCGACGAUCUAUUAUGUACUCUACUGAUAUCUAAAUAUUGAUUUCUGCCUUCCUUGCUAAUGCACCAUUAGAAGAUAUUAGUCUUGGGGCAGGAUGAUUUUGGCCUCAUUACUUUACCACCCCCACACCCAACAGAGGAUUGAGCAUCA
# B18: chr6:144094883:144095236:-|three_prime_utr|ENSG00000169976|control|control|control (ssRNA)
# RNA: GGGAGUUCUACAGUCCGACGAUCUCCGCGUACAGAAGUGCUUGCCCGGGGAGUCCCGCCUGACCUGCCUUCAUGUGGACCCUUAGAACAGCACUGGGAGACCAGCAGGACUCCUGAGAACUGUGCUGGUGGAGAGGUCCUAGACAACAGAGGAUUGAGCAUCA
# B19: chr16:74623592:74623693:-|3pUTR|ENSG00000168411|msi1|FALSE|unique (ssRNA)
# RNA: GGGAGUUCUACAGUCCGACGAUCCCAUUAUUGUAUGUUGGAAAUUCUUAUUUUCUUUAUUUUCUGUGUGACUUUCUGGACCUUAGAGAGUGUCCUCUCAUCAUCUAGGAUGUGAGUGGGCAUCAAGCAUUUUCUGGGGAAUAUCAACAGAGGAUUGAGCAUCA
# B20: chr9:6012816:6012917:-|CDS|ENSG00000137040|unk|FALSE|unique (ssRNA)
# RNA: GGGAGUUCUACAGUCCGACGAUCGGGAUUGUGCAUAUUUGAUGACAUCAUAGAGCACUGCAGUCCAACUUCAUUUAAAUAUGUAGAAUAUUUUCGGUGGCCAAUGCUACUAAAUAUGCGAGAUAACAACCCUGAAGUCAGGCACAACAGAGGAUUGAGCAUCA
# B21: chr1:205715917:205716022:-|3pUTR|ENSG00000069275|msi1_unk|total|mutant (ssRNA)
# RNA: GGGAGUUCUACAGUCCGACGAUCGAGACAGGCUCUGAAUAACCUUUGUUUUCUCCACUUUUUAUUGAUGAUUUAAAACACUCCCGUCUUCCCCUCAAAUCAUGCAUGCAAACCGGAGGACAGUGGUGGUGACUCAACUGGAUACAACAGAGGAUUGAGCAUCA
# B22: chr16:366968:367674:-|three_prime_utr|ENSG00000086504|control|control|control (ssRNA)
# RNA: GGGAGUUCUACAGUCCGACGAUCGACUCACUACAACCUCCACCUCCAGAGUUCAAGUGAUUGUCCUGUCUCAGCCUCCUGAGUAGCUGGGAUUACAGGCACCCCGCUAUCAUGUAUGGCUAAUUGUAUUUUAGUAGAGAAGGGCAACAGAGGAUUGAGCAUCA
# Target: MSI1 full-length (mouse, UniProt Q61474 1-362)
# Assay: nsRBNS (natural sequence RNA bind-n-seq); RBNS binding buffer (assumed for nsRBNS): 25 mM Tris pH 7.5, 150 mM KCl, 3 mM MgCl2, 0.01% Triton X-100, 500 ug/ml BSA, 20 U/ml SUPERase-In, 4 C; UNK is unkempt and MSI1 is Musashi-1; names of the RNAs are library labels; protein concentration not given here; high values mean tight binding
# Chain of UniProt Q61474 (Q61474 whole entry): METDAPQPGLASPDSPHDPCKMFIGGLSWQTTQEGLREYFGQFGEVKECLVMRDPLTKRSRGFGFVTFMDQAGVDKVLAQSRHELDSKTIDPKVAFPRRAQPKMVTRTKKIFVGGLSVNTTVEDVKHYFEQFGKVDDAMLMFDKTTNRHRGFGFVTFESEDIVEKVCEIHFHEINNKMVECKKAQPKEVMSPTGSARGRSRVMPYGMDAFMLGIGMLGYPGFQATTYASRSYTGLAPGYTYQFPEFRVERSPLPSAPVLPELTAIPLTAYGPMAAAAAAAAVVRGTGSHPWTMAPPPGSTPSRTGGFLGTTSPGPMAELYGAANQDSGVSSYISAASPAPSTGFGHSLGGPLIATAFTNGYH
row,Binder,binding signal
1,B1,0.767 enrichment R
2,B2,0.335 enrichment R
3,B3,3.25 enrichment R
4,B4,0.209 enrichment R
5,B5,0.475 enrichment R
6,B6,0.483 enrichment R
7,B7,0.86 enrichment R
8,B8,0.238 enrichment R
9,B9,0.284 enrichment R
10,B10,0.429 enrichment R
11,B11,0.319 enrichment R
12,B12,39.5 enrichment R
13,B13,0.735 enrichment R
14,B14,0.451 enrichment R
15,B15,0.735 enrichment R
16,B16,0.795 enrichment R
17,B17,1.39 enrichment R
18,B18,0.427 enrichment R
19,B19,0.568 enrichment R
20,B20,0.513 enrichment R
21,B21,0.488 enrichment R
22,B22,1.24 enrichment R

# From article PMC12136788
